Data published in article PMC4336329 (PLoS ONE, 2015).
Among all 310,000 compounds or so, about 2,200 (0.71%) showed an effect of 50% or more. Effects have a minus sign here. The list shows a part of the results.

The compounds below were run against human ether-à-go-go-related gene (hERG) potassium channel (human, UniProt Q12809) (assay: primary screen, population patch clamp on CHO cells stably expressing hERG).
Chain of human ether-à-go-go-related gene (hERG) potassium channel (Q12809 whole entry, looked up): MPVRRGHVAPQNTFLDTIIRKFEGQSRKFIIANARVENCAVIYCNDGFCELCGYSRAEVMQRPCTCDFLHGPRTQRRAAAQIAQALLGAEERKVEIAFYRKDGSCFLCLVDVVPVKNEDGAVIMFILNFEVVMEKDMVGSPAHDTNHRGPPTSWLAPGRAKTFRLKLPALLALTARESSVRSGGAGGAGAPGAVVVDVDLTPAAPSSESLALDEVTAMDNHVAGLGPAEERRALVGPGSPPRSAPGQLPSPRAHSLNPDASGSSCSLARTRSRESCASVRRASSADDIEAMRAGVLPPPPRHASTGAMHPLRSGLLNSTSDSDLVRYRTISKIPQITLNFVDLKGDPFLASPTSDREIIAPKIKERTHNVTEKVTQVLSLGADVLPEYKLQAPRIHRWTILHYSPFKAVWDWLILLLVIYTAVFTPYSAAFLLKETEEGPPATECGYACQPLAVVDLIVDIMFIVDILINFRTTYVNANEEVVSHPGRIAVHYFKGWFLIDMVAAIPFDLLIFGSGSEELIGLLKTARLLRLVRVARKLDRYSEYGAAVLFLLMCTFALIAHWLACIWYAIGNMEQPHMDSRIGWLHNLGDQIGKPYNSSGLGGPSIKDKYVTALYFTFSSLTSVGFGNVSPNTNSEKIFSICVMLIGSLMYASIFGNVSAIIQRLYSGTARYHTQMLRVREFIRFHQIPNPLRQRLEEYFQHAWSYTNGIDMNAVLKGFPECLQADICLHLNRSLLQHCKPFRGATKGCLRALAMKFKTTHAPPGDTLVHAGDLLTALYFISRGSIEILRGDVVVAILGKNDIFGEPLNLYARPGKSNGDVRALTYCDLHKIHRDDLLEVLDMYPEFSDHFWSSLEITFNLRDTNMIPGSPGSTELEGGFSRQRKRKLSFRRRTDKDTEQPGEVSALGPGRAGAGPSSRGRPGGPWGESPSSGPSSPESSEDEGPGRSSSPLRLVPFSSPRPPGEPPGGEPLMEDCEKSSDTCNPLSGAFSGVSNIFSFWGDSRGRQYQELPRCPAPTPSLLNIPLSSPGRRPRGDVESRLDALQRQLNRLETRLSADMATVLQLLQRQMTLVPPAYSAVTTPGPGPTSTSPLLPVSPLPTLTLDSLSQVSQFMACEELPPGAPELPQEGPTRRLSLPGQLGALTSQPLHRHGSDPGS

| SMILES | hERG current change (%, negative = inhibition) at 1uM [%] |
| --- | --- |
| CN(Cc1ccccc1)S(=O)(=O)c1ccc(NC(=S)NC(=O)C2CCCCC2)cc1 | 5.25 |
| Cc1cc(C)n2nc(-c3ccc(Br)cc3)cc2n1 | 9.4 |
| Cn1c(=O)[nH]c(=O)c2c1nc(Br)n2CCCCSc1nc2ccccc2o1 | -14.1 |
| O=C(Cn1nc(-c2ccco2)ccc1=O)Nc1cc(C(F)(F)F)ccc1Cl | 7.26 |
| S=c1[nH]c2cc(Cl)ccc2s1 | 12.8 |
| Nc1nc(N)nc(-c2cccc(Cl)c2Cl)n1 | 21.2 |
| COc1ccc(OC)c(NC(=O)C23CCC(C)(C(=O)O2)C3(C)C)c1 (centres unmarked) | 4.98 |
| COc1ccc(-c2ccc3c(c2)S(=O)(=O)c2cccc(C(=O)O)c2C3=O)cc1OC | 13.3 |
| Cc1ccc(Cl)cc1NC(=O)CCC(=O)NCc1ccco1 | 12 |
| Cc1c(C(=O)NCC(c2ccco2)N2CCCC2)oc2ccc(Cl)cc12 (centres unmarked) | 7.9 |
| Nc1nonc1-c1nc2ccccc2n1CC(=O)O | 7.13 |
| CCOc1ccccc1OCCOCCN1CC(C)OC(C)C1 (centres unmarked) | 2.22 |
| CC(C)c1ccccc1N=C1SCCN1C1CCS(=O)(=O)C1 (centres unmarked) | 9.31 |
| Cc1ccc(NC(=O)c2c(-c3ccccc3Cl)noc2C)nc1 | 3.25 |
| Clc1ccc(-c2cn3cccnc3n2)cc1Cl | 7.24 |
| N#Cc1ccccc1NC(=O)CSc1n[nH]c(-c2ccco2)n1 | 13.6 |
| O=C(NC(=S)N1CCCCC1c1cccnc1)c1ccccc1 (centres unmarked) | 7.46 |
| O=C(/C=C/C=C/c1ccccc1)CC1(O)C(=O)N(CCc2ccccc2)c2ccccc21 (centres unmarked) | 11 |
| O=C(Nc1ccc(F)cc1F)c1ccc2c(c1)[nH]c(=O)n2Cc1ccc(F)cc1 | 8.9 |
| CC(C)=CCCC(C)N(C=O)C(C)CCC=C(C)C (centres unmarked) | 2.21 |
| O=C(CSc1ccccn1)N/N=C/c1cc([N+](=O)[O-])ccc1O | 21.6 |
| COc1cc(OC)nc(Oc2ccccc2C(=O)Oc2ccc(C)cc2)n1 | -0.306 |
| COc1ccc(Cl)cc1NC(=O)Cn1c(=O)oc2ccccc21 | 10 |

| SMILES | hERG current change (%, negative = inhibition) at 1uM [%] |
| --- | --- |
| Cc1ccc(S(=O)(=O)NC(=O)c2ccccc2)cc1C(C)C | 7.39 |
| CN(C)C(=O)C[n+]1cccc(/C=N/O)c1 | 11 |
| COc1cc(C(=O)NC(C)CCc2ccccc2)cc(OC)c1OC (centres unmarked) | 12.9 |
| COc1ccc(CN2CCNC(=O)C2CC(=O)NCCC2=CCCCC2)cc1OC (centres unmarked) | 16.1 |
| O=C(NCc1ccc2c(c1)CCO2)Nc1ccccc1 | 12.2 |
| CN1CCC(N(C)S(=O)(=O)c2ccc(NC(=O)c3cccc(C#N)c3)cc2)CC1 | 6.72 |
| Cc1ccccc1CN1CCSc2sccc2C1=O | 9.98 |
| COc1ccc(CC(=O)N2CCN=C2SCc2cccc([N+](=O)[O-])c2)cc1 | 2.08 |
| CCCN1CC=C2C(C#N)=C(N)C(C#N)(C#N)C(c3cc(OC)ccc3OC)C2C1 (centres unmarked) | -7.51 |
| Cc1ccccc1C(OCC(O)CN1CCC(C(N)=O)CC1)c1ccccc1 (centres unmarked) | -12.5 |
| O=C(CCc1nnc(-c2ccc3c(c2)OCO3)o1)NCCc1ccccc1F | 7.34 |
| COc1ccc(-c2cn3cc(C(=O)NN)ccc3n2)cc1 | 2.72 |
| COc1ccc(NC(=O)/C(C#N)=C\C=C\c2ccco2)cc1 | 12.5 |
| CCOC(=O)c1cc(-c2ccccc2)sc1NC(=O)C(C)Sc1nnc(N)s1 (centres unmarked) | 18.1 |
| Cc1ccc(N)cc1O | 11.9 |
| O=C(CNC(=O)c1ccc(S(=O)(=O)N2CCCCC2)cc1)N/N=C/c1ccco1 | 14 |
| Cc1ccc(S(=O)(=O)Nc2nc3ccccc3nc2NCc2ccco2)cc1C | 8.42 |
| CCN=c1sc(C(=O)NCCc2ccccc2)cc(=O)n1CC | 9.48 |
| Cn1c(=O)c2c(nc(SCCCC#N)n2Cc2c(F)cccc2Cl)n(C)c1=O | -20 |
| COc1cccc2c(=O)c3ccoc3n(C)c12 | 5.12 |
| CC(C)=CCCC(C)CN1CCC(N2CCC(C(=O)N3CCCC3)CC2)CC1 (centres unmarked) | 3.15 |
| Cc1noc(C)c1S(=O)(=O)Nc1ccc(O)c2c(=O)cc(-c3ccccc3Cl)oc12 | 10.1 |
| CCNc1nc(NCC)n2c(SCC(=O)Nc3cccc(F)c3)nnc2n1 | 15.6 |

| SMILES | hERG current change (%, negative = inhibition) at 1uM [%] |
| --- | --- |
| CCOC(=O)c1cc2sccc2n1CC(=O)Nc1ccc(OC)cc1 | 11.9 |
| CCc1cccc2c(C(=S)N3CCOCC3)c[nH]c12 | -1.08 |
| CC(=O)NCN1CCN(CNC(C)=O)CC1 | 6.72 |
| Cc1ccc(-c2ccnc3[nH]n(-c4ccccc4)c(=O)c23)cc1 | 13 |
| COc1cc(/C=N/NC(=O)C(C)Nc2n[nH]c(=O)[nH]c2=O)ccc1O (centres unmarked) | 13.8 |
| CCOc1ccc(NC(=O)CN2CCC(n3cnc4cc(F)ccc43)CC2)cc1 | -71.7 |
| Nc1nc(N2C(=O)C3CC=CCC3C2=O)nn1-c1ccccc1 (centres unmarked) | 15.4 |
| COC(=O)CSc1nc2cc(Cl)ccc2c(=O)n1C1CCCC1 | 19.5 |
| COc1ccc2nc(NC(=O)C3CCCN3S(=O)(=O)c3ccc(C)cc3)sc2c1 (centres unmarked) | 7.53 |
| CC(C)c1nc(SCC(=O)Nc2ccc(N(C)C)cc2)c2ccccc2n1 | 6.72 |
| CCOC(=O)N1CCN(Cc2nc3cc([N+](=O)[O-])ccc3n2CC)CC1 | -6.46 |
| COC(=O)/C(=C\c1c[nH]c2ccccc12)NC(C)=O | 2.7 |
| CC(C)Oc1ccc(S(=O)(=O)N2CCCCC2)cc1NC(=O)C1=COCCO1 | 16.2 |
| O=C(N/N=C/c1cc(Br)c(Br)s1)c1ccncc1 | 6.46 |
| O=C(CSc1cccc[n+]1[O-])NC1CCCCCCC1 | 4.13 |
| CCOC(=O)c1oc2ccccc2c1NC(=O)c1cccc(OC)c1OC | -2.52 |
| COCCOC(=O)c1sc(=S)n(CCOC)c1N | 0.714 |
| O=C(NC(=S)Nc1ccc(Cl)c(C(=O)O)c1)c1cccc(COc2ccccc2)c1 | 8.19 |
| Cc1ccccc1C1NC(=S)NC2=C1C(=O)CC(C)(C)C2 (centres unmarked) | -0.209 |
| NC(=O)CN1C(=O)C(=O)N(Cc2cccc(Cl)c2)C1=O | 7.6 |
| Cc1onc(-c2ccccc2)c1C(=O)Nc1ccc2c(c1)OCCO2 | 14.3 |
| COCC1CCN(Cc2cn[nH]c2-c2cc3ccccc3o2)C1 (centres unmarked) | 0.607 |
| COc1cc2c(cc1OC)C(C)N(C(=O)c1sccc1C)CC2 (centres unmarked) | 9.97 |

| SMILES | hERG current change (%, negative = inhibition) at 1uM [%] |
| --- | --- |
| CN1C(=O)C(C)(C)c2cc(S(=O)(=O)NCc3ccc(Cl)cc3)ccc21 | 0.513 |
| Cc1ccc(S(=O)(=O)N2c3ccc(S(N)(=O)=O)cc3CC2C)cc1 (centres unmarked) | 2.33 |
| CCOc1cc(NC(=S)Nc2ccc(Cl)cc2)c(OCC)cc1NC(C)=O | 9.06 |
| O=C(CCCN1CCC(O)(c2ccc(Br)cc2)CC1)c1ccc(F)cc1 | -75.7 |
| O=C(Nc1nnc(-c2ccncc2)s1)C1CCCO1 (centres unmarked) | 21.4 |
| O=C(CSCc1cccc(CSCC(=O)Nc2ccccc2)n1)Nc1ccccc1 | -59.7 |
| N#Cc1ccc(COC(=O)Cn2nnc(-c3ccccc3)n2)cc1 | 7.61 |
| Nc1ccc2c(c1)C(=O)N(c1cccc3ccccc13)C2=O | 12.6 |
| CC(/C=N/NC(=O)c1cc(-c2ccccc2)nc2ccccc12)=C\c1ccco1 | 5.45 |
| COc1ccccc1-c1nn(-c2ccccc2)cc1C(=O)N1CCc2ccccc2C1 | 3.17 |
| CCc1nnc(NC(=O)[C@@H](NC(=O)c2ccc(OC)cc2)C(C)C)s1 | 5.59 |
| CC(O)[C@@]1(O)CC[C@H]2[C@@H]3CC[C@H]4C[C@@H](O)CC[C@]4(C)C3=CC[C@@]21C (some centres unmarked) | 2.66 |
| O=C(CN1CCN(C(=O)c2ccccc2)CC1)Nc1ccc(Br)cn1 | -72.1 |
| Cc1cccc(C)c1NC(=O)c1cc(-c2ccccn2)nc2ccccc12 | 7.6 |
| COC(=O)/C(=N/Nc1cccc(C)c1)N1CCCc2ccccc21 | 1.77 |
| COc1ccc2cc(CCNC(=O)C3CCCC3)c(=O)[nH]c2c1 | 7.05 |
| CC1CCN(CC(O)COCCC23CC4CC(CC(C4)C2)C3)CC1.Cl (centres unmarked) | -7.11 |
| CC(=O)Nc1ccc(NC2CCCCC2NS(=O)(=O)c2ccc(Cl)cc2)cc1 (centres unmarked) | 12 |
| O=C(NNC(=O)c1ccc(F)c(S(=O)(=O)N2CCOCC2)c1)c1ccc(Br)cc1 | 0.208 |
| CCOC(=O)c1nn(-c2ccccc2)c(C#N)c1N | 3.93 |
| O=C(CCC1COc2ccccc2O1)Nc1ccc(Cl)cn1 (centres unmarked) | 3.03 |
| O=C(Oc1ccc2ccccc2c1)c1ccco1 | -0.657 |
| O=C(CSc1nnc(-c2ccc(OC(F)F)cc2)o1)N1CCOCC1 | -16.1 |
